Measurements: the supplement of paper PMC11417369
Some of the results follow.

Test system: PfAP2-HC AP2 domain (GST-tagged)
Assay: gcPBM binding intensity (ln(normalized median fluorescence intensity)); higher = stronger DNA binding
In short: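 GST-fused DNA-binding domains of P. falciparum, expressed in E. coli, were applied at about 25 μg on average for 1 h to an Agilent 4 × 180k array of primer-extended double-stranded 36-bp intergenic genomic probes and negative controls. Binding intensity is the highest Masliner-normalised natural-log median intensity across replicate spots of either probe orientation, measured with Alexa488 anti-GST antibody and a 488 nm scan.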

| Sequence | gcPBM binding intensity (ln) |
| --- | --- |
| AAAATCAAGTAGTATAAAGTAAGTATCATAAAAATA [CACACA_negctrl_site1554] | 9.73 |
| GTACACTAATTATGTGCACACAAATTAAAGGTCTAC [CACACA_site146] | 10.3 |
| ATAATAAAATGGAGAGTGCATACATGTTTATTTTAT | 9.82 |
| TGTAGTTTGTCCCATGCATGTTCCATTAAAATATAT [TGCATGCA_site854] | 9.85 |
| TTAACGTAAAATATAGTGCATAGTATCATATTGATA [GTGCAC_site9527] | 9.78 |
| CAATCAAAGAAACACACACACACCTAAACATAAAAG [CACACA_site2756] | 11.7 |
| AATGTATATATGTAATGTACATATATAATGTATATA [XGTACX_site6510] | 9.79 |
| TTACTCATGAAAGATACACACATTCATTATATATAT [CACACA_site3252] | 9.88 |
| TATATAAACCCGTACACACACATATATGTATATATA [CACACA_site3507] | 10.3 |
| AAATTTACAATACATTGTACATATTAATAATATTCC [XGTACX_site3646] | 9.49 |
| AGACATAAGATAATTACACACAATACATCCCTATAT [CACACA_site2227] | 10.2 |
| AATAAAAATTTACTTTGTACACATATTAAATTCAAT [XGTACX_site1957] | 9.5 |
| TACTTCTACAAGAGAAGTACAATATTTTTTATATTA [XGTACX_site8351] | 9.41 |
| GTGTGTTGTATATACTGTACATACTTTATATATAGT [XGTACX_site1876] | 10.4 |
| TATAACAAGTAATGTTGTACATTGTATTATGTAATA [XGTACX_site6372] | 9.65 |
| AAATGTGTTTATTTAACACACAAAAGAAAAAATATA [CACACA_site6993] | 10.1 |
| AATGTAAAATATATGTGTACATATGTTTATATATAT [XGTACX_site2216] | 9.84 |
| AAAAAACTTTTAAGCACACACATAGATAATATAGAT [CACACA_site6835] | 10.4 |
| TTCCCTTTTGTAAAATGTACATATATATTTAAACAA [XGTACX_site3263] | 9.56 |
| TTTTTATTAAAATGTATTTTAGGAAAAAACAAAAAA [XGTACX_negctrl_site437] | 9.36 |
| TAAGTTCCCTTTGAATGTACATATAATGAAAAGAAA [XGTACX_site826] | 9.51 |
| AATATTAACAATCGCACACATATTATTTTTCCAAAA [CACACA_site4982] | 9.82 |

| Sequence | gcPBM binding intensity (ln) |
| --- | --- |
| TGAAATGGAAACAACTGTACAAAATAAATATGATAT [XGTACX_site1311] | 9.85 |
| ATATAAATATAGCATACACACAAAAAAATAAAATAA [CACACA_site2333] | 10.1 |
| TTTTTTTTTTTTGTCACACATATTTGTATTAATCAT [CACACA_site5235] | 9.66 |
| AAATGAAATAAATGTAGTACACATATACAATATATA [XGTACX_site6951] | 9.83 |
| TGTATATCATATATTTGTACTCAATTAATATAAACA [XGTACX_site3970] | 9.36 |
| TATGGAAGAAAATATACACACAAAAAAAAAAAATGT [CACACA_site1486] | 10.2 |
| ATACTTTTATTTTTGGTGCATATATCATGTAGACGT | 9.64 |
| AATTTATTATTTGTATGTACTCATATGATTCACTTA [XGTACX_site2797] | 9.69 |
| TATTAATTTTTAAACATAATTTTTCGTATAATATAT [CACACA_negctrl_site762] | 9.52 |
| GAGATAAAATAAAACACACACATATATTTATATAAC [CACACA_site7098] | 10.9 |
| TTTACTTTCTTATTTTCACACATTTAAAAAAAAATT [CACACA_site5949] | 9.5 |
| ACATCTAATTTGTATACACACAATAATAAATGGTGA [CACACA_site824] | 9.67 |
| TATATATATTTATAATGTACATATTTTTTTTTATTT [XGTACX_site4761] | 9.81 |
| TTGTATATATGACTTTTTTATATTTCAATTTTGTGC [CACACA_negctrl_site296] | 9.57 |
| AAGGAGATAATTTATTGTACATATAATAAATGAACA [XGTACX_site6252] | 9.62 |
| TCTTACAAAAAAAAAAAAAAATAAAATAAAATATAT [CACACA_negctrl_site1575] | 9.32 |
| TTAATATTATGTTAAAGTACTTTATATATATATAAT [XGTACX_site2646] | 9.43 |
| ATCTTATATATACGTTGTACTACAGGATATGTCATA [XGTACX_site5734] | 9.68 |
| TTCATTTACCCTTATTAACACACAAAATATAATACG [CACACA_site8821] | 9.75 |
| TGTATATTATAAGATAGTACATATATATAATATATA [XGTACX_site1297] | 9.48 |
| ATAAATATCATATATATACACACGTAATACATAATA [CACACA_site4001] | 9.84 |
| TTACTTGTTTATTTTATTTTTTTTTTTTTTTTGTTA [TGCATGCA_negctrl_site266] | 9.39 |

| Sequence | gcPBM binding intensity (ln) |
| --- | --- |
| AGTGAGAAATACATAATAATACATTATGTGCATATT [XGTACX_negctrl_site247] | 9.75 |
| AAGAATATTTTTTTCTGTACATATAATTTATATACG [XGTACX_site5801] | 9.3 |
| GTACACATATATATATATATATATATATATATATTA [CACACA_negctrl_site1580] | 9.7 |
| ATATTAAGAATATATACACACATAAGTATTGTATAT [CACACA_site6110] | 9.84 |
| TATTCGTGCAATAGTAGTACACTTATAAATTATTCT [XGTACX_site4899] | 9.58 |
| ATAAAATAAAATAAATGTACACGAAAAAAAATATTT [XGTACX_site3747] | 10.1 |
| GTTGGTAGATTTATTTGTACATATGTATCATATTAT [XGTACX_site7135] | 9.93 |
| AAAAATTTATTTTGTTTTTTAAGATTTTTTTTTTTT [CACACA_negctrl_site1210] | 8.89 |
| TAATTACAAAAACATACACACAAAAAAAAAAAAAAA [CACACA_site3782] | 9.67 |
| ACATACATATATATACGTACATATATATTTATATAT [XGTACX_site5799] | 9.88 |
| ATTCTAAATATCAGTGCACACATTTCTACGCAAAGT [CACACA_site474] | 9.87 |
| GTTGTTATATAAAATTGTACATAAAAAACAAAATAT [XGTACX_site5313] | 9.66 |
| TAAAATTATTAATGAGTGCATTATAAAATCTATATA [GTGCAC_site9493] | 9.36 |
| TTTTCTTTCTTTCAAACACACATTAATTTTATTCAT [CACACA_site2734] | 9.79 |
| ATAAATGGCTATAGCATATTGTATATGTGATTATAA [CACACA_negctrl_site948] | 10 |
| ATAATTGTTTAAAGGTGTACAATACATATATTTTAA [XGTACX_site3648] | 9.64 |
| TCATATATTATATATTGTACAAAATAATAAGTATTT [XGTACX_site3987] | 9.44 |
| ATGCAATTATATAGTAGTACAAATTTATAAATATAC [XGTACX_site4869] | 9.76 |
| ATTATACACCCGCGCACACACAACAAAAAAAAAAAA [CACACA_site5871] | 11.1 |
| ATATATATATATATGGGTACGTAAAAATATAATAAA [XGTACX_site4036] | 9.99 |
| ATGAAAATATTTAAAAGTACAGAAATATAAAACCTT [XGTACX_site403] | 9.82 |
| CACAAATATACAAATACACACAAATATACACATATA [CACACA_site7176] | 10.1 |

| Sequence | gcPBM binding intensity (ln) |
| --- | --- |
| AAAATATTTATCATTTGTACTTAGATGTAAACTTGA [XGTACX_site1778] | 9.43 |
| TATAAAATATAAATAAATAAATAAATATATATATAT [TGCATGCA_negctrl_site448] | 9.66 |
| TATTTTATACACTTGCTAAAACATTAACACATATGT [CACACA_negctrl_site1818] | 9.83 |
| TATATATATATATATTGTACTAAATCATTTAAATGA [XGTACX_site8016] | 9.39 |
| AAAAAACAAAAACACACGCACACAAAAAAAAAAAAA [CACACA_site802] | 10.2 |
| ACCTATATAAATTATACACACAAATATAAATATATA [CACACA_site2843] | 9.79 |
| AATTATATATAACGTAGTACATATTATAAACCACGT [XGTACX_site8816] | 9.76 |
| TGTCATAAAACCGTTTGTACATATTAATAGACACCT [XGTACX_site4520] | 9.54 |
| TTGTTATTCCACCGTTGTACAGTTATATACATACAC [XGTACX_site8296] | 9.8 |
| TATAATAATAATGATAGTACGTATGAGTTCAAGAAA [XGTACX_site4918] | 9.76 |
| ATATTCCTTTAATATTGTACTATTTTTTTCCTTATA [XGTACX_site8659] | 9.87 |
| TATAATTTTCTTAGTAGTACATTTTAAATCTACTAC [XGTACX_site2621] | 9.51 |
| TGTATCCACATATGTACACACATATATCTGTATATG [CACACA_site5668] | 9.9 |
| ACTAATAACAAAAGCTTGCACTTTTTTTTTCCTAAT | 9.51 |
| TATGTACAAATATGTACACACACACCGATATATATA [CACACA_site4487] | 10.1 |
| AAAAAAAAAAAAAAAAGTACAAAAATTATATTAAGA [XGTACX_site4255] | 9.59 |
| ATATAAGATTACAAAAATTATGTGTAAATATTTAAT [XGTACX_negctrl_site448] | 9.69 |
| AAAAAAATTACATATCCATTTTAACATAATAAATAG [GTGCAC_negctrl_site618] | 9.44 |
| ATTCTATTCTCCTTCACACACAAAAATATTTCATCA [CACACA_site2360] | 10.1 |
| ATCTATGGGTAGTATACACACTGTATATTTAGGAAT [CACACA_site5569] | 9.69 |
| TTACGAATAAAACAGTGTACATTGAATTTCTATGAG [XGTACX_site4771] | 9.51 |
| TCCATGCAGAAACACACACACAAAAAAAAATTCTTT [CACACA_site4099] | 10.4 |
